Laboratory results as given in paper PMC4336329 (PLoS ONE, 2015).
Hit rate of the full screen: of about 310,000 compounds, about 2,200 (0.71%) showed an effect of 50% or more. Effects have a minus sign here. This is one part of the list.

Target: human ether-à-go-go-related gene (hERG) potassium channel (human, UniProt Q12809)
Assay: primary screen, population patch clamp on CHO cells stably expressing hERG

human ether-à-go-go-related gene (hERG) potassium channel, sequence (Q12809 whole entry, looked up): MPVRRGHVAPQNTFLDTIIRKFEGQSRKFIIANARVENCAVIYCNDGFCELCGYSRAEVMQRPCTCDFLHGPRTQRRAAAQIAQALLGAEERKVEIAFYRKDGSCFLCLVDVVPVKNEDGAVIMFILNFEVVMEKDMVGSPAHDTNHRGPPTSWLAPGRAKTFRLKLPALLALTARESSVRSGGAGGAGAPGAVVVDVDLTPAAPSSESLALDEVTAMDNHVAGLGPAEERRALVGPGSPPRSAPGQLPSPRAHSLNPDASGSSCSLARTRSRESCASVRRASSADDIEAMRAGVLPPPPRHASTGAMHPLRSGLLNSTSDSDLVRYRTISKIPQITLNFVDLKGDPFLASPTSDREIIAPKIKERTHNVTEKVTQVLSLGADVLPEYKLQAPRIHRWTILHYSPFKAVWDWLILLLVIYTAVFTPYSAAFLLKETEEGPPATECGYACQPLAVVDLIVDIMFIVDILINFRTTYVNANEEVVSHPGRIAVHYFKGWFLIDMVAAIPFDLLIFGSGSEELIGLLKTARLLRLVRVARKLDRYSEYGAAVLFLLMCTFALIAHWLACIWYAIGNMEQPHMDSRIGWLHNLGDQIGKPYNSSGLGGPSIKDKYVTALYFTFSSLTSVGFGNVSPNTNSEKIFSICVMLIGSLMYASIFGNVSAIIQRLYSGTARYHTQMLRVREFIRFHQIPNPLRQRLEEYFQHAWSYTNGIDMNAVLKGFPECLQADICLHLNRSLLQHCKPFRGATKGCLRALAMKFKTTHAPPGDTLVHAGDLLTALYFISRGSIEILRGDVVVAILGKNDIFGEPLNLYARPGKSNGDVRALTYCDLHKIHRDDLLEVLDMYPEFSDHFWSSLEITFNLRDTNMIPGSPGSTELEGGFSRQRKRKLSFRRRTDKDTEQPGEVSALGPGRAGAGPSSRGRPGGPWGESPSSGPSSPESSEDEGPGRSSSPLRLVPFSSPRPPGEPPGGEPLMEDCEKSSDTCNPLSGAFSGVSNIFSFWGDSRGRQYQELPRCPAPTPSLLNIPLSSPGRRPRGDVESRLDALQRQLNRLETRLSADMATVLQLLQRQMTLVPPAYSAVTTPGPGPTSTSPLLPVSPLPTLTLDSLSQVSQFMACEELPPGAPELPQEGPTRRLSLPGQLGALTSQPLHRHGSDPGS

Row | Compound | hERG current change (%, negative = inhibition) at 1uM [%]
1 | CC1(C(=O)NC23CC4CC(CC(C4)C2)C3)CC1(Cl)Cl (centres unmarked) | 2.43
2 | COc1cccc2c(N/N=C/c3ccco3)cc(C)nc12 | 5.01
3 | CCOc1ccccc1C(=O)NCC(=O)NCCCSc1ccccc1 | 6.67
4 | NNC(=O)c1nc[nH]c1C(=O)Nc1ccccc1 | 16.8
5 | CCN(c1ccccc1)S(=O)(=O)c1ccc(Cl)c(NC(=O)CN2CCN(C)CC2)c1 | -17.4
6 | CCOc1ccccc1NC(=O)CCNC(=O)Cn1ccc2ccccc2c1=O | 9.9
7 | COc1ccc(NS(=O)(=O)c2cccc3cccnc23)cc1Cl | 10.4
8 | CN(c1cccnc1)c1ncnc2[nH]ncc12 | 12.4
9 | COc1cccc(OC)c1C(=O)NNC(=O)c1cccnc1 | 17.4
10 | COc1ccc(OC)c(C(=O)N2CCC(n3nccc3NC(=O)CC(C)C)CC2)c1 | 12.2
11 | COc1ccc(NC(=O)CCN2CCCC2)c(OC)c1 | 9.32
12 | Cc1cccc(NC(=O)Cn2c(=O)oc3cc(S(=O)(=O)N4CCCC4)ccc32)n1 | 9.06
13 | CCCN1C(=O)SC(CC(=O)Nc2ccc(C)cc2)C1=O (centres unmarked) | 7.62
14 | CN(Cc1cc(=O)n2ccsc2n1)C1CCCCC1 | 11.3
15 | C=C(C)c1cccc(C(C)(C)NC(=O)Nc2nnc(C(C)C)s2)c1 | 4.89
16 | COc1cc(OC)cc(C(=O)NN2CCOCC2)c1 | 7.2
17 | CN(C)C(=O)c1ccc(NC(=O)CN2CCc3cc4c(cc3C2)OCCCO4)cc1 | 8.03
18 | Cc1ccnc(N2C(=O)c3ccc([N+](=O)[O-])cc3C2=O)c1 | 12.2
19 | COCCCn1c(-c2ccsc2)nc2c1c(=O)[nH]c(=O)n2Cc1ccccc1 | 9.23
20 | COCCNC(=O)C(c1ccco1)N(C(=O)Cn1nnc2ccccc21)c1ccc(C)cc1C (centres unmarked) | 11.2
21 | CC(=O)Oc1ccccc1/C=C1\CCOC1=O | 12.3
22 | COCCn1c(SCC(=O)N2CCCc3ccccc32)nc2cccnc21 | -3.04
23 | CC(=O)Nc1ccc(OCCOc2ccc(/C=C3/C(=N)N4C=CSC4=NC3=O)cc2)cc1 | 14.5

Row | Compound | hERG current change (%, negative = inhibition) at 1uM [%]
24 | COc1ccc(OCCSc2nnc(CC(=O)Nc3cccc(Cl)c3Cl)n2C)cc1 | 12.8
25 | COCCN(C(=O)CSc1nc2ccc(OC)cc2[nH]1)c1c(N)n(Cc2ccccc2)c(=O)[nH]c1=O | 5.45
26 | COc1ccc(CN(CC(=O)NC2CCCC2)C(=O)CCC(=O)Nc2cc(C)on2)cc1 | 3.27
27 | CCCCNC(=O)Nc1ccccc1Br | 8.47
28 | Cc1ccc(S(=O)(=O)NCC(=O)N2CCN(c3ccc(F)cc3)CC2)cc1 | 7.62
29 | Cc1ccccc1CN(c1ccc(C(=O)Nc2ccccc2C(=O)NCc2ccco2)cc1)S(C)(=O)=O | -1.92
30 | O=C(COc1ccccc1)Nc1nnc(-c2ccccc2)o1 | -2.99
31 | CC(C)C(=O)NC(c1cccc([N+](=O)[O-])c1)c1ccc2cccnc2c1O (centres unmarked) | 11.7
32 | Cn1nc(-c2ccc(N3CCCCC3)c(NC(=O)c3ccco3)c2)c2ccccc2c1=O | 13
33 | O=C(NC1CCCC1)C(c1ccccn1)N(C(=O)c1csnn1)c1ccccc1Cl (centres unmarked) | 9.28
34 | Cc1ccc(C)c(N/C(N)=N/c2nc(C)cc(C)n2)c1 | -8.3
35 | CCOc1ccc(-n2c(=S)sc3c(=O)[nH]c(SCC(=O)N4CCC(C)CC4)nc32)cc1 | 16.8
36 | O=C(COC(=O)c1ccc(F)c(S(=O)(=O)N2CCCCC2)c1)NCc1ccc(F)cc1 | 4.94
37 | O=C(Nc1ccncc1)Nc1ccccn1 | 9.93
38 | CCN1CCN(C(=O)C2CCN(C(=O)Nc3ccccc3)CC2)CC1 | -1.08
39 | COc1ccccc1-c1c(C(F)(F)F)oc2cc(OS(C)(=O)=O)ccc2c1=O | 5.3
40 | CCCCC1(C(=O)OCC)NC(c2ccc(O)cc2)C2C(=O)N(c3ccccc3)C(=O)C21 (centres unmarked) | 2.92
41 | COC(=O)c1c(NC(=O)c2nc3ccccc3s2)sc2c1CCN(C(C)=O)C2 | 18.9
42 | COc1ccccc1/C=N/NC(=O)c1c(-c2ccccc2)noc1C | 14
43 | CS(=O)(=O)c1ccc(C(=O)OCC(=O)NC(=O)C2CCCCC2)cc1[N+](=O)[O-] | -6.35
44 | COc1ccc(NC(=O)C2CCN(S(=O)(=O)c3cccc4nonc34)CC2)cc1 | 14.3
45 | Cc1cc(=O)oc2n[nH]c(-c3ccccc3)c12 | 5.57
46 | O=C1CC(N(O)c2ccccc2)C(=O)N1Cc1ccccc1 (centres unmarked) | 8.95

Row | Compound | hERG current change (%, negative = inhibition) at 1uM [%]
47 | CCc1ccc(N(CC(=O)NCc2ccco2)C(=O)CCC(=O)Nc2ccccn2)cc1 | 2.87
48 | COCCCN(C(=O)c1ccc2ccccc2n1)c1c(N)n(Cc2ccccc2)c(=O)[nH]c1=O | 14.5
49 | CCOC(=O)c1sc(NC(=O)CN2CC(C)OC(C)C2)nc1C (centres unmarked) | 7.62
50 | N#Cc1ccccc1N=C1CCCN1Cc1ccccc1 | 14.5
51 | Cc1ccc(NC(=O)CSc2nc(=O)n(Cc3ccncc3)c3c2CCC3)c(C)c1 | 5.53
52 | CCn1c(CNc2ccc(Cl)cc2)nnc1SCc1ccc(Cl)cc1 | 9.96
53 | O=C(CN1C(=O)c2ccccc2C1=O)NCc1ccncc1 | 0.454
54 | COc1cc(OC)c(OC)cc1CNC(=O)c1cc(=O)[nH]c2ccccc12 | 13.8
55 | Cc1c(Cc2ccccc2)c(=O)oc2cc(O)ccc12 | 11.5
56 | Cl.OC(COc1ccccc1)CN1CCN(Cc2ccc3c(c2)OCO3)CC1 (centres unmarked) | -34.3
57 | C=CCCC(=O)Nc1ccc(COC(=O)N2CCOCC2)cc1 | 14.8
58 | CC(C)C(c1nnnn1C1CCCCC1)N1CCc2ccccc21 (centres unmarked) | 18
59 | CCC(=O)Nc1ccc(NCc2cccs2)cc1 | 11.4
60 | COc1ccc(-c2cc(C(=O)NCCCN3CCOCC3)no2)cc1 | 13.6
61 | CSCC[C@H](NC(=O)N1CCn2c1nc1ccccc12)C(=O)N1CCCCC1 | 12.4
62 | CC1CCC(C(C)C)C(=O)/C1=C\c1ccc(NC(=O)CCC(=O)O)cc1 (centres unmarked) | 7.12
63 | Cc1ccc(-n2cc(CN3CCN(C(=O)c4ncn[nH]4)CC3)c(-c3ccc(F)cc3)n2)cc1 | 5.89
64 | CCOC(=O)Cc1csc(NC(=O)c2c(O)c3c(n(CC(C)C)c2=O)CCCC3)n1 | 9.19
65 | COc1ccc(C2CC(c3ccc(Cl)cc3)=NN2C(=O)c2cccc([N+](=O)[O-])c2)cc1 (centres unmarked) | 15.9
66 | O=C(O)c1ccc(SCc2ccccc2)nc1 | 3.94
67 | O=C1CCC(CCC(=O)N2CCCC(C(=O)c3cccc(C(F)(F)F)c3)C2)=NN1 (centres unmarked) | -1.34
68 | COc1cc(/C=N/NC(=O)c2cc(-c3ccc4c(c3)OCO4)n[nH]2)ccc1O | 8.72
69 | CCCCn1cnc2cc(NCc3cccc(OC)c3O)ccc21 | -7.49

Row | Compound | hERG current change (%, negative = inhibition) at 1uM [%]
70 | CCC(C)c1ccc(C2C3=C(Nc4nc(N)[nH]c(=O)c42)c2ccccc2C3=O)cc1 (centres unmarked) | 12.6
71 | CCS(=O)(=O)N1CCCC(C(=O)c2ccc(OC)cc2C)C1 (centres unmarked) | 17.5
72 | CCCCN(C)CCNC(=O)CSCc1ccc(C)cc1.O=C(O)C(=O)O | -1.3
73 | Cc1cccc(/C=C(\C#N)C(=O)Nc2ccccn2)c1 | 16.4
74 | COC(=O)CCC(NC(=O)c1cc(C)oc1C)C(=O)OC (centres unmarked) | 9.89
75 | Cl.Clc1ccc(C2=NCCN2)cc1 | 6.48
76 | C=CCNC(=O)c1ccc2c3n(nc2c1)-c1ccc(Cl)cc1CO3 | -16.1
77 | COc1ccc(C(=O)Nc2ccc(Cl)c(Cl)c2)c(OC)n1 | 11.7
78 | Cc1ccc(S(=O)(=O)N2CCN(C)CC2)cc1 | 13.7
79 | CC1CCN(C(=O)Cn2c(=O)n(CCc3ccccc3)c(=O)c3ccccc32)CC1 | -4.89
80 | COc1ccc(C(=O)OCC(=O)c2ccc(Br)s2)c(OC)c1 | 9.46
81 | CCN1CCN(C(c2ccc(OC)cc2)c2nnnn2Cc2ccc3c(c2)OCO3)CC1.Cl (centres unmarked) | -17.4
82 | CNC(=O)NC(=O)COC(=O)c1n[nH]c2ccccc12 | 9.81
83 | CNS(=O)(=O)c1cc(-c2nnc(Nc3ccc(NC(C)=O)cc3)c3ccccc23)ccc1C | 17.8
84 | Cc1onc(-c2c(Cl)cccc2Cl)c1-c1nnc(-c2ccc(Cl)cc2)o1 | 14.1
85 | CCOC(=O)C1=C(CCc2ccccc2)NC(=O)NC1c1cccc([N+](=O)[O-])c1 (centres unmarked) | 12.3
86 | CCOc1nc(Nc2cc(Cl)ccc2OC)nc(OCC)n1 | 18.3
87 | O=c1cc(-c2ccc(O)cc2)oc2c1ccc1ccccc12 | 6.79
88 | CCOC(=O)c1ccc(Nc2nc(C)cc(C)c2C#N)cc1 | 15.6
89 | Fc1ccc(-c2cc(C(F)(F)F)nc(-n3cncn3)n2)cc1 | -8.19
